Where “and” joins values, the source holds several entries; their conditions need not be identical. Equal values may be shown once. This continues a long series; more values of the same kind are listed elsewhere.
Assay: xn = mol fraction of the nth substance listed
Conditions: 101 kPa

CCCCOCCO + O
Conditions	viscosity
293.15 K, x1 = 0.0762	3.4 mPa·s
293.15 K, x1 = 0.1861	4.746 mPa·s
293.15 K, x1 = 0.2919	4.879 mPa·s
295.15 K, x1 = 0.0762	3.192 mPa·s
295.15 K, x1 = 0.1861	4.431 mPa·s
295.15 K, x1 = 0.2919	4.554 mPa·s
297.15 K, x1 = 0.0762	3.004 mPa·s
297.15 K, x1 = 0.1861	4.144 mPa·s
297.15 K, x1 = 0.2919	4.256 mPa·s
297.51 K, x1 = 0.05983	2.592 mPa·s
298.15 K, x1 = 0.01	1.122 mPa·s
298.15 K, x1 = 0.025	1.52 mPa·s
298.15 K, x1 = 0.05	2.195 mPa·s
298.15 K, x1 = 0.075	2.763 mPa·s
298.15 K, x1 = 0.1	3.183 mPa·s
298.15 K, x1 = 0.1191	3.576 mPa·s
298.15 K, x1 = 0.15	3.711 mPa·s
298.15 K, x1 = 0.2	4.014 mPa·s
298.51 K, x1 = 0.05983	2.518 mPa·s
299.15 K, x1 = 0.0762	2.833 mPa·s
299.15 K, x1 = 0.1861	3.883 mPa·s
299.15 K, x1 = 0.2919	3.987 mPa·s
299.51 K, x1 = 0.05983	2.449 mPa·s
300.15 K, x1 = 0.1191	3.365 mPa·s
300.51 K, x1 = 0.05983	2.381 mPa·s
301.15 K, x1 = 0.0762	2.679 mPa·s
301.15 K, x1 = 0.1861	3.646 mPa·s
301.15 K, x1 = 0.2919	3.742 mPa·s
301.51 K, x1 = 0.05983	2.317 mPa·s
302.15 K, x1 = 0.1191	3.184 mPa·s
302.51 K, x1 = 0.05983	2.254 mPa·s
303.15 K, x1 = 0.0762	2.537 mPa·s
303.15 K, x1 = 0.1191	3.092 mPa·s
303.15 K, x1 = 0.1861	3.432 mPa·s
303.15 K, x1 = 0.2919	3.514 mPa·s
303.51 K, x1 = 0.05983	2.198 mPa·s
303.95 K, x1 = 0.1191	3.023 mPa·s
304.51 K, x1 = 0.05983	2.142 mPa·s
305.15 K, x1 = 0.0762	2.408 mPa·s
305.15 K, x1 = 0.1191	2.923 mPa·s
305.15 K, x1 = 0.1861	3.233 mPa·s
305.15 K, x1 = 0.2919	3.307 mPa·s
305.51 K, x1 = 0.05983	2.088 mPa·s
306.15 K, x1 = 0.1191	2.842 mPa·s
306.51 K, x1 = 0.05983	2.039 mPa·s
307.15 K, x1 = 0.0762	2.292 mPa·s
307.15 K, x1 = 0.1191	2.773 mPa·s
307.15 K, x1 = 0.1861	3.051 mPa·s
307.15 K, x1 = 0.2919	3.117 mPa·s
307.51 K, x1 = 0.05983	1.989 mPa·s
308.15 K, x1 = 0.1191	2.704 mPa·s
308.51 K, x1 = 0.05983	1.943 mPa·s
309.15 K, x1 = 0.0762	2.185 mPa·s
309.15 K, x1 = 0.1191	2.637 mPa·s
309.15 K, x1 = 0.1861	2.883 mPa·s
309.15 K, x1 = 0.2919	2.94 mPa·s
309.51 K, x1 = 0.05983	1.899 mPa·s
310.15 K, x1 = 0.1191	2.572 mPa·s
310.51 K, x1 = 0.05983	1.859 mPa·s
311.15 K, x1 = 0.0762	2.088 mPa·s
311.15 K, x1 = 0.1191	2.506 mPa·s
311.15 K, x1 = 0.1861	2.726 mPa·s
311.15 K, x1 = 0.2919	2.778 mPa·s
311.51 K, x1 = 0.05983	1.819 mPa·s
312.15 K, x1 = 0.1191	2.447 mPa·s
312.51 K, x1 = 0.05983	1.781 mPa·s
313.15 K, x1 = 0.0762	2 mPa·s
313.15 K, x1 = 0.1191	2.385 mPa·s
313.15 K, x1 = 0.2919	2.628 mPa·s
313.51 K, x1 = 0.05983	1.738 mPa·s
314.15 K, x1 = 0.1191	2.329 mPa·s
314.51 K, x1 = 0.05983	1.711 mPa·s
315.15 K, x1 = 0.0762	1.922 mPa·s
315.15 K, x1 = 0.1191	2.277 mPa·s
315.15 K, x1 = 0.1861	2.449 mPa·s
315.15 K, x1 = 0.2919	2.489 mPa·s
315.51 K, x1 = 0.05983	1.681 mPa·s
316.13 K, x1 = 0.05983	1.662 mPa·s
316.15 K, x1 = 0.1191	2.23 mPa·s
316.81 K, x1 = 0.05983	1.642 mPa·s
317.15 K, x1 = 0.0762	1.852 mPa·s
317.15 K, x1 = 0.1191	2.183 mPa·s
317.15 K, x1 = 0.1861	2.326 mPa·s
317.15 K, x1 = 0.2919	2.362 mPa·s
317.51 K, x1 = 0.05983	1.625 mPa·s
318.01 K, x1 = 0.05983	1.613 mPa·s
318.15 K, x1 = 0.0762	1.822 mPa·s
318.62 K, x1 = 0.05983	1.6 mPa·s
318.65 K, x1 = 0.1191	2.111 mPa·s
319.14 K, x1 = 0.05983	1.591 mPa·s
319.15 K, x1 = 0.0762	1.795 mPa·s
319.15 K, x1 = 0.1191	2.084 mPa·s
319.15 K, x1 = 0.1861	2.212 mPa·s
319.15 K, x1 = 0.2919	2.243 mPa·s
319.62 K, x1 = 0.05983	1.583 mPa·s
320.12 K, x1 = 0.05983	1.579 mPa·s
320.15 K, x1 = 0.0762	1.773 mPa·s
320.15 K, x1 = 0.1191	2.045 mPa·s
320.62 K, x1 = 0.05983	1.578 mPa·s
320.65 K, x1 = 0.0762	1.766 mPa·s
320.92 K, x1 = 0.05983	1.577 mPa·s
321.12 K, x1 = 0.05983	1.58 mPa·s
321.15 K, x1 = 0.0762	1.76 mPa·s
321.15 K, x1 = 0.1191	2.002 mPa·s
321.15 K, x1 = 0.1861	2.105 mPa·s
321.15 K, x1 = 0.2919	2.131 mPa·s
321.31 K, x1 = 0.05983	1.58 mPa·s
321.51 K, x1 = 0.05983	1.585 mPa·s
321.65 K, x1 = 0.0762	1.761 mPa·s
321.71 K, x1 = 0.05983	1.594 mPa·s
321.87 K, x1 = 0.05983	1.602 mPa·s
321.95 K, x1 = 0.03452	1.083 mPa·s
321.95 K, x1 = 0.0762	1.764 mPa·s
321.96 K, x1 = 0.05983	1.611 mPa·s
322.06 K, x1 = 0.05983	1.621 mPa·s
322.12 K, x1 = 0.05983	1.628 mPa·s
322.15 K, x1 = 0.03452	1.081 mPa·s
322.15 K, x1 = 0.0762	1.77 mPa·s
322.15 K, x1 = 0.1191	1.962 mPa·s
322.17 K, x1 = 0.05983	1.634 mPa·s
322.21 K, x1 = 0.05983	1.643 mPa·s
322.25 K, x1 = 0.0762	1.775 mPa·s
322.26 K, x1 = 0.05983	1.654 mPa·s
322.32 K, x1 = 0.05983	1.669 mPa·s
322.35 K, x1 = 0.0762	1.783 mPa·s
322.37 K, x1 = 0.05983	1.686 mPa·s
322.42 K, x1 = 0.05983	1.711 mPa·s
322.44 K, x1 = 0.05983	1.722 mPa·s
322.45 K, x1 = 0.03452	1.076 mPa·s
322.45 K, x1 = 0.0762	1.791 mPa·s
322.46 K, x1 = 0.05983	1.734 mPa·s
322.47 K, x1 = 0.05983	1.741 mPa·s and 1.749 mPa·s
322.49 K, x1 = 0.05983	1.758 mPa·s and 1.764 mPa·s
322.51 K, x1 = 0.05983	1.786 mPa·s and 1.786 mPa·s and 1.793 mPa·s
322.55 K, x1 = 0.0762	1.804 mPa·s
322.62 K, x1 = 0.0762	1.817 mPa·s and 1.818 mPa·s
322.65 K, x1 = 0.03452	1.074 mPa·s
322.95 K, x1 = 0.03452	1.07 mPa·s
323.15 K, x1 = 0.03452	1.069 mPa·s
323.15 K, x1 = 0.1191	1.921 mPa·s
323.15 K, x1 = 0.1861	2.007 mPa·s
323.15 K, x1 = 0.2919	2.028 mPa·s
